# Measured values taken from PubChem BioAssay AID624202 (National Center for Advancing Translational Sciences (NCATS), 2012).
# About 4,000 (1.1%) of roughly 380,000 compounds were called active. The inconclusive results got no clear call from the source; some entries with a clear call stand among them for comparison. Calls follow the shape of the dose curve; as a rule, active = well fitted activation curve with a large enough effect; inconclusive = small, poorly fitted or top-dose-only effect; inactive = no such curve, though single readings can be large or run the other way. A potency beside an inconclusive call is a rough fit, not a confirmed value.
# Assay: qHTS Assay to Identify Small Molecule Activators of BRCA1 Expression; also: nearly all actives have a fitted effect of over 80% in size
# Conditions: MCF7-BRCA1-FFLuc reporter, luminescence, 48 h; activation: at 46.1 µM (top of the series), scaled: vehicle 0%, 10 µM genistein 100% unless noted
# Outline: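 MCF7-BRCA1-FFLuc, 2000 cells/well; 2 h attach, 37 °C/5% CO2; compound 48 h; luciferase substrate 15 min; luminescence end-point. Norm. to genistein 10 microM max activation and DMSO; concentration-response curves fitted.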
# Potency is read from the fitted curve at half-maximal effect; tags tell the direction and shape of the fitted curve.
Structure (SMILES),Potency,activation
S=C(c1ccc(-c2ccc(Cl)c(Cl)c2)o1)N1CCOCC1,"inconclusive: 2.82 µM [activator, full curve, poor fit]",–
Cc1ccc(CNC(=O)CSCc2ccccc2F)cc1,"inconclusive: 12.6 µM [activator, partial curve, poor fit]",–
COc1cccc(C(=O)Nc2ccc(C)cc2)c1,"inconclusive: 1.26 µM [activator, partial curve, poor fit]",–
C#CCOc1c(Cl)cc(/C=N/O)cc1OC,"inconclusive: 12.6 µM [activator, partial curve, poor fit]",–
O=C(NCc1ccco1)Nc1ccc2nsnc2c1,inactive,–
Cc1ccc(-n2ncc3c2ncn2nc(-c4ccco4)nc32)c(C)c1,"inconclusive: 22.4 µM [activator, single point]",–
O=C(CSc1nnc(-c2ccc([N+](=O)[O-])cc2)o1)Nc1ccccn1,"inconclusive: 0.355 µM [activator, full curve, poor fit]",–
CCSc1nnc(NC(=O)c2ccc3c(c2)OCO3)s1,"inconclusive: 2.51 µM [activator, partial curve, poor fit]",–
Clc1ccccc1-c1nnc(-c2ccccc2Cl)o1,"inconclusive: 2 µM [activator, partial curve, poor fit]",–
O=C(Nc1cnn(Cc2ccc(F)cc2)c1)c1noc2c1CCCC2,"inconclusive: 8.91 µM [activator, partial curve, poor fit]",–
CNc1cccc(-c2cccc(O)c2)n1,active: 10 µM,–
NC(=O)c1ccsc1NC(=O)CSc1ccccc1F,active: 11.2 µM,–
Cc1cc(C)cc(-n2ncc3c2CCCC3NC(=O)CCN2CCCC2=O)c1 (centres undefined),inactive,–
O=[N+]([O-])c1ccccc1-c1ccc(C(=S)N2CCCCC2)o1,"inconclusive: 4.47 µM [activator, partial curve, poor fit]",–
O=C(Nc1ccn(Cc2ccccc2)n1)c1ccc2c(c1)OCO2,"inconclusive: 14.1 µM [activator, partial curve, poor fit]",–
COc1ccc2c(c1)CCc1c(C(=O)NC3CCCCC3)noc1-2,"inconclusive: 2 µM [activator, full curve, poor fit]",–
CC1CCCN(C(=O)CNC(=O)c2ccco2)C1 (centres undefined),"inconclusive: 35.5 µM [activator, single point]",–
CC(C)(C)c1ccc(/C=N/NC(=O)c2ccccn2)cc1,–,inconclusive: 69.4% [activator]
CCOC(=O)CSc1nc(-c2ccncc2)ccc1C#N,"inconclusive: 0.631 µM [activator, full curve, poor fit]",–
